We go through 61 compounds from PubChem BioAssay AID1508624 (National Center for Advancing Translational Sciences (NCATS), 2021).

Molecules are shown by their SMILES. In all, about 48,000 compounds went through this assay and about 120 (0.25%) were called active. Inconclusive results (about 4%) are left out. The call rests on the fitted dose curve; in most records, active means well fitted activation curve with a large enough effect; inconclusive means small, poorly fitted or top-dose-only effect, or another doubt; inactive means no such curve, though single readings can be large or run the other way. Some of the results follow.

A short description of the experiment: Primary qHTS for Identification of Small Molecule Activators of Huntingtin-Antisense Promoter Activity. Further: nearly all actives have a fitted effect of over 55% in size. The settings on record: HEK293 HTT-AS promoter firefly luciferase reporter (activity 0% = vehicle and -100% = no light), 24 h; series mostly up to 57.5 µM; activity change, positive = activation: at the top concentration. The gist of the method:
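Firefly luciferase signal from promoter-reporter HEK293 cells was scaled between vehicle (0%) and zero RLU (-100%). Compounds were tested at final concentrations of up to 57.5 uM over 24 h at 37 degrees C. PTC124 at 50 uM final served as control inhibitor.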
Take `COc1ccc(CNC(=O)C(=O)NCC(c2cccs2)S(=O)(=O)c2ccc(F)cc2)cc1` (stereo unspecified): the “activity change, positive = activation” value is inactive: -34.4%.

Consider `COc1ccc(CN(CCC(c2ccc3c(c2)OCO3)c2ccccc2OC)C(C)=O)cc1` (stereo unspecified), for which the “activity change, positive = activation” value was inactive: -31.5%.

Turning to `CCOCCCn1c(=N)c(S(=O)(=O)c2ccc(C)cc2)cc2c(=O)n3cccc(C)c3nc21`, the “activity change, positive = activation” value was inactive: -4.16%.

As to `O=C(NCC(c1ccc2c(c1)OCO2)N1CCN(c2ccccc2)CC1)c1ccccc1F` (stereo unspecified), the “activity change, positive = activation” value was inactive: 10.1%.

With `CCOC(=O)c1ccc(OCC2c3cc(OC)c(OC)cc3CCN2C(=O)Cc2ccc(F)cc2)cc1` (stereo unspecified), the “activity change, positive = activation” value is inactive: -26.1%.

As for `CC(=O)N1CCCc2cc(S(=O)(=O)N(C)CC(=O)Nc3ccc(F)cc3Cl)ccc21`, the “activity change, positive = activation” value was inactive: -27.2%.

Turning to `Cc1ccc(CN2C(=O)c3ccccc3C2C(=O)NC2CCCCCC2)cc1` (stereo unspecified), the “activity change, positive = activation” value was inactive: -10.7%.

Take `CCc1ccc(-n2nc(C)c3c(C(=O)Nc4cccc(C(F)(F)F)c4)cc(C)nc32)cc1`: the “activity change, positive = activation” value was inactive: -20.2%.

Consider `Cc1cc(O)c(C(c2ccc(F)cc2)N2CCCCC2)c(=O)n1Cc1ccco1` (stereo unspecified), for which the “activity change, positive = activation” value was inactive: -6.37%.

`Cc1cc(Nc2cccc(C(F)(F)F)c2)nc2ccc(NC(=O)c3ccc(N(C)C)cc3)cc12`: the “activity change, positive = activation” value was inactive: -14.5%.

Regarding `CCOc1ccccc1NC(=O)c1c(C)cc(C)nc1SCC(=O)c1cccc(OC)c1`, the “activity change, positive = activation” value is inactive: -12.7%.

In the case of `COc1ccc(CNC(=O)CCn2nc(C)c3c(C)n(-c4ccccc4)nc3c2=O)cc1OC`, the “activity change, positive = activation” value was inactive: 3.84%.

Regarding `Cc1cccn2c(=O)c(/C=C(\C#N)c3nc4ccccc4n3C)c(Oc3ccc(Br)cc3)nc12`, the “activity change, positive = activation” value was inactive: -12%.

Consider `O=C(CN1CCN(c2ccc(Cl)cc2)CC1)Nc1ccc(F)cc1F`, for which the “activity change, positive = activation” value was inactive: 15.5%.

As for `Cc1ccc(NC(=O)CCCn2nc(C)c3c(C)n(-c4ccccc4)nc3c2=O)cc1Cl`, the “activity change, positive = activation” value was inactive: 3.96%.

Regarding `Cc1cc(C)cc(NC(=O)CSc2nccn2-c2ccccc2)c1`, the “activity change, positive = activation” value is inactive: -26.3%.

Regarding `Cc1cc(Br)ccc1NC(=O)c1cc2c(=O)n(C)c3cc(Cl)ccc3c2s1`, the “activity change, positive = activation” value was inactive: -2.36%.

For `O=C(NC1CC(=O)N(c2ccccc2)C1)C1CCCCC1` (stereo unspecified), the “activity change, positive = activation” value is inactive: -10.2%.

With `Cc1cccc2nc(-c3cccnc3)c(Nc3ccc(C(C)C)cc3)n12`, the “activity change, positive = activation” value was inactive: -33.4%.

Turning to `COc1ccc(NC(=O)C2=C(C)Nc3nc(SCc4ccccc4C)nn3C2c2ccc(Br)cc2)cc1` (stereo unspecified), the “activity change, positive = activation” value is inactive: -9.25%.

With `Cc1cccc(NC(=O)C2CCN(S(=O)(=O)c3cccc4nsnc34)CC2)c1C`, the “activity change, positive = activation” value is inactive: -20.7%.

For `NCCCC[C@H](N[C@@H](CCc1ccccc1)C(=O)O)C(=O)N1CCC[C@H]1C(=O)O`, the “activity change, positive = activation” value is inactive: -0.098%.

Take `Cc1ccc(-c2cc(N)n3nc(-c4ccc(C)cc4)cc3n2)cc1`: the “activity change, positive = activation” value is inactive: 5.23%.

On to `CCOC(=O)c1noc2ncnc(Nc3ccc(C)c(F)c3)c12`, for which the “activity change, positive = activation” value was inactive: 9.14%.

Turning to `CCOC(=O)c1noc2ncnc(N(CCC(=O)OC)c3ccccc3)c12`, the “activity change, positive = activation” value is inactive: -12.6%.

Turning to `COc1ccc(OC)c(C2CC(=O)c3c([nH]c(C(=O)OC4CCC(C)CC4)c3C)C2)c1` (stereo unspecified), the “activity change, positive = activation” value is inactive: -19.5%.

With `Cc1ccc2c(c1)sc1nc(=O)n(-c3ccc(Cl)cc3)c(=O)n12`, the “activity change, positive = activation” value was inactive: 15.3%.

As for `CN1CCN(CCCNC(=O)Cn2c(-c3cccs3)cc3ccccc32)CC1`, the “activity change, positive = activation” value was inactive: -13.7%.

Regarding `CC(CC(=O)NCc1ccc(Cl)cc1)CC1=NS(=O)(=O)c2ccccc2N1` (stereo unspecified), the “activity change, positive = activation” value was inactive: -21.4%.

On to `O=C(Cn1cc(SCc2ccc(C(F)(F)F)cc2)c2ccccc21)N1CCCCC1`, for which the “activity change, positive = activation” value is inactive: -6.13%.

Take `COc1ccc2c(CNCc3ccc(Cl)cc3)c(C(=O)O)n(Cc3ccccc3C)c2c1`: the “activity change, positive = activation” value was inactive: -26.3%.

For `CCc1cccc2c(-c3ccccc3)nc(SCC(=O)Nc3ccccc3)nc12`, the “activity change, positive = activation” value is inactive: 2.47%.

Regarding `COc1ccc(N2CCN(CCCNC(=O)C3COc4ccc(OC)cc4C3)CC2)cc1` (stereo unspecified), the “activity change, positive = activation” value was inactive: -24.1%.

Regarding `COc1ccc(-c2cc(C)no2)cc1S(=O)(=O)NCc1ccc(OC(C)C)cc1`, the “activity change, positive = activation” value was inactive: -29.2%.

`CCCCOCCOc1nc(-c2ccc(C(=O)O)c(F)c2)sc1C`: the “activity change, positive = activation” value is inactive: 14.9%.

In the case of `COc1ccc(S(=O)(=O)c2cn(C)c3cc(N4CCCCC4)c(F)cc3c2=O)cc1`, the “activity change, positive = activation” value was inactive: -15.2%.

In the case of `CC(=O)c1ccc(N2CCN(c3nc4c(S(=O)(=O)c5ccccc5)nnn4c4ccc(Cl)cc34)CC2)cc1`, the “activity change, positive = activation” value is inactive: -1.21%.

As for `Cc1c(-c2nsc(NC(=O)c3ccc(Cl)cc3)n2)nnn1-c1ccc(C(C)C)cc1`, the “activity change, positive = activation” value was inactive: -22.1%.

Take `COc1ccc2c(CNCc3ccc(C)o3)c(C(=O)O)n(Cc3ccccc3)c2c1`: the “activity change, positive = activation” value is inactive: -18.8%.

For the compound `CCOc1cc(-c2nc(-c3ccc(-c4ccc(C)cc4)nc3OC)no2)cc(OCC)c1OCC`, the “activity change, positive = activation” value is inactive: -10.3%.

As to `COc1ccc(Cl)cc1NC(=O)Cn1c2ncccc2c(=O)n1-c1ccc(C)c(C)c1`, the “activity change, positive = activation” value is inactive: -10.5%.

For the compound `Cc1cc(C)cc(N(CC(=O)Nc2cccc(C)c2C)S(=O)(=O)c2c(C)[nH]c(=O)[nH]c2=O)c1`, the “activity change, positive = activation” value is inactive: -15.1%.

`COc1ccc(C2C=C(c3ccccc3)Nc3nc(NC(=O)c4ccc(C)cc4)nn32)cc1` (stereo unspecified): the “activity change, positive = activation” value was inactive: -11.7%.

Take `Cc1ccc(-n2nc3c(=O)n(CC(=O)Nc4ccccc4F)nc(C)c3c2C)c(C)c1`: the “activity change, positive = activation” value is inactive: -32.6%.

On to `COC(=O)c1ccc(Cl)cc1NC(=O)N1CC(C)Oc2ccccc21` (stereo unspecified), for which the “activity change, positive = activation” value was inactive: -15.9%.

Turning to `CCOC(=O)c1ccc(NC(=O)c2cc3cc(C)ccc3n2C)cc1`, the “activity change, positive = activation” value was inactive: -16.6%.

In the case of `Cc1ccc(NC(=O)Nc2nnc(N(C)Cc3ccccc3)s2)cc1`, the “activity change, positive = activation” value was inactive: -12%.

Consider `Cc1cc(NS(=O)(=O)c2ccc(NC(=O)COc3ccc(Cl)cc3)cc2)nc(C)n1`, for which the “activity change, positive = activation” value was inactive: -12.4%.

Regarding `CN(C(=O)c1cc(-c2ccccc2O)on1)c1ccccc1`, the “activity change, positive = activation” value was inactive: 9.7%.

On to `COc1ccc(S(=O)(=O)N2CCC(c3ccncc3)CC2)cc1Cl`, for which the “activity change, positive = activation” value is inactive: -38.8%.

`CCCCOc1c(Cl)cc(C(=O)N(Cc2ccc(C)o2)C2CCS(=O)(=O)C2)cc1Cl` (stereo unspecified): the “activity change, positive = activation” value was inactive: -64.8%.

For the compound `Cc1cc(C)c2oc(C(=O)N(Cc3ccc(F)cc3)C3CCS(=O)(=O)C3)cc(=O)c2c1` (stereo unspecified), the “activity change, positive = activation” value was inactive: -5.46%.

As to `CSc1ccc(CCNc2ncnc3onc(C)c23)cc1`, the “activity change, positive = activation” value was inactive: -79.2%.

Turning to `CCOC(=O)c1c(C)oc2ccc(N(C(=O)Oc3ccccc3)S(=O)(=O)c3ccccc3)cc12`, the “activity change, positive = activation” value is inactive: -7.95%.

As to `CCOc1ccc(/C=C(\C#N)c2nc(-c3cc4ccccc4oc3=O)cs2)c(OCC)c1`, the “activity change, positive = activation” value is inactive: -7.5%.

As to `CCN1CCN(C(c2ccc(OC)cc2)c2c(O)cc(C)n(CCOC)c2=O)CC1` (stereo unspecified), the “activity change, positive = activation” value is inactive: -3.84%.

With `COc1ccc(C(CNC(=O)COc2ccc(C)cc2)N2CCCCC2)cc1` (stereo unspecified), the “activity change, positive = activation” value was inactive: 8.68%.

Take `COc1ccccc1NC(=O)c1c(NCc2sccc2C)sc2c1CCCCC2`: the “activity change, positive = activation” value was inactive: -5.58%.

In the case of `CN(C(=O)Cn1c(=O)n(CCCS(=O)(=O)C2CCCCC2)c(=O)c2ccccc21)c1ccccc1`, the “activity change, positive = activation” value is inactive: -11.4%.

Turning to `CN(C)CCN(Cc1ccco1)S(=O)(=O)c1cc2c(cc1Cl)NC(=O)CO2`, the “activity change, positive = activation” value was inactive: -9.49%.

As for `COc1ccccc1CCNC(=O)CCc1c(C)c2cc3c(C)coc3c(C)c2oc1=O`, the “activity change, positive = activation” value is inactive: -9.9%.
